Measurements reported in article PMC12136788.
The other results are listed elsewhere or left out.

T1: UNK ZnF1-3 (human, UniProt Q9C0B0 31-174)
T1 sequence: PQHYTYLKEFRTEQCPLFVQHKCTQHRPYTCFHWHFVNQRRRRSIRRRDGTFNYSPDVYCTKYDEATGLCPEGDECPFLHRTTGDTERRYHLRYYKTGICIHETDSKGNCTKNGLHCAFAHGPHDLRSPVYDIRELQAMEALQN

B1: chrX:71549762:71549763:+_ENSMUSG00000019087_ENSMUST00000019231|mus_mus|mus_mus_mus_hu_False|28_58 (ssRNA)
RNA: GGGAGUUCUACAGUCCGACGAUCAAACCCGUGUACUUCUUAUUGUUAGCACAACAUCACCAGAAAACGAUAACGACAGCUAAGCUGGACAGACAGUUAAGUAGUACUUCCACACCUCCAAACUCAGGGAGCCCUAUAACCUUACAACAGAGGAUUGAGCAUCA
B2: chr8:95500983:95500984:-_ENSG00000164944_ENST00000437199|hu_hu|hu_hu_hu_mus_True|1_38 (ssRNA)
RNA: GGGAGUUCUACAGUCCGACGAUCAGAACACAUCUAUCGAGUAAAGGACCGUACAUGACGGCCUCUACCACUGCCUCCACUAACAAACUUUCCUCUCUGAGCCUCCAUGCCGCUAUUUGUACUAGCCCAGGACGGUCCCAAGUCCAACAGAGGAUUGAGCAUCA
B3: 88509813_88509933_4497_3pUTR_ENSMUSG00000034111_ENSMUST00000037418|mouse|control|control (ssRNA)
RNA: GGGAGUUCUACAGUCCGACGAUCAAGACAGUUCUGAAGCAGCACAAACUUAAUUUGCACCUUCUCUCUGUCCACUAAAAACGUCUUCACAUAAUUACUAGGGUCACUCAAUCCCACACCUUAGAACCAUGGACUCUGACAUUACAACAGAGGAUUGAGCAUCA
B4: chr2:179515052:179515053:+_ENSMUSG00000000305_ENSMUST00000000314|mus_hu|mus_mus_mus_hu_False|78_108 (ssRNA)
RNA: GGGAGUUCUACAGUCCGACGAUCGCUUUCCCGCGCAGUCACCGUGAACGCCACCUGCUCUGAGGGGACCUGCAGCUCCCGGGUGGCGAAGACUGUCCCAUCUGCCCCAACUUUGAAGUCCAUGCUGUUGGUCUCAUAUUGUGUCAACAGAGGAUUGAGCAUCA
B5: chr21:30248746:30248747:-_ENSG00000156239_ENST00000303775|hu_hu|motif|central (ssRNA)
RNA: GGGAGUUCUACAGUCCGACGAUCUCAAAAUAUGCUAAAUGCAUUCAGUUUCCAGUAGUUCUGGGCACACACUGUAUGCGGAGACUUGGUGAACUUGAGGACUGAAAGAGUUUCUUGGCCUGCUUGUCUGGAAAGUGCAGUGGUCAACAGAGGAUUGAGCAUCA
B6: 32341751_32342618_1515_3pUTR_ENSMUSG00000027665_ENSMUST00000108243|mouse|control|control (ssRNA)
RNA: GGGAGUUCUACAGUCCGACGAUCUCAGCAGAUCUUCUAACCCAUGCGGUACAGGCCAGAGAUUCAAAGCCAUUUUCCCGGACACUAGGGUGUCUGUAUAAUCAAACAAGUUUAUGUUUCCCCAGGCCAACGGACAGUGCUCCUCAACAGAGGAUUGAGCAUCA
B7: chr18:74380996:74380997:+_ENSMUSG00000024560_ENSMUST00000025444|mus_mus|FALSE|FALSE (ssRNA)
RNA: GGGAGUUCUACAGUCCGACGAUCGCAGAGACCCUUUGAUAAGGGCAAACGGAAGCCAAAACGUGGAUGGUGAGGAUCAAACUAAGGGCAGCAGAAGAAACAGAUGAAUGGAGGAACGGACAGCUGGCAAUGCAGGGCCUCUCCCAACAGAGGAUUGAGCAUCA
B8: chr11:77336104:77336105:-_ENSG00000074201_ENST00000525064|hu_mus|hu_hu_hu_mus_False|18_48 (ssRNA)
RNA: GGGAGUUCUACAGUCCGACGAUCCUCACACAUUGCUGUGAACAUCGCCUCCAAUGCUGACUUAUCACUGGGCACAAAUCGAAAUUCAGUAAUAGGUUCAACAUCAUCAUUGUCUUCUUCCUCUUCUUCAGAGAGAGGUUCUUUCAACAGAGGAUUGAGCAUCA
B9: chr7:54825262:54825263:-_ENSG00000132432_ENST00000352861|hu_hu|hu_hu_hu_mus_False|98_98 (ssRNA)
RNA: GGGAGUUCUACAGUCCGACGAUCCUGCCGGCUGGGCACAAACUGCAGCAUUACCUGAUCCAUGUUUGUUGGAUGGCGGAUUGAGAGCGUAGAGACACGUAGCUCAGGAGAGAACCGAGCCCAACGGAACCGGAAGCUGGCAACCAACAGAGGAUUGAGCAUCA
B10: chr12:32445735:32445736:+_ENSMUSG00000035933_ENSMUST00000036862|mus_mus|FALSE|FALSE (ssRNA)
RNA: GGGAGUUCUACAGUCCGACGAUCUCGAGCUCUUGCAAUAAAGAGUAGAUCAUUCUCUAUUACUUCUAUUCCAGAAAGAUCUAUUCCUUGAGAAAGAUAAUCAAGUUCAUUGAGACUCUGAGCAGCUUUUGUUAUCUCUCUACUCAACAGAGGAUUGAGCAUCA
B11: chr3:179287964:179287965:+_ENSG00000136518_ENST00000429709|hu_hu|hu_hu_hu_mus_True|38_108 (ssRNA)
RNA: GGGAGUUCUACAGUCCGACGAUCCUUUAGAGGUGAAAUGGCCUCCAUGUUCUCCCUGGGCACGCGGAGGGCAUUGGUGUCUAUGUAGUAGGUGGGCCCGCCUUGUUUGCCUUUGUCACCAUCAAUCUCCAUCAUUGUACUUCCCAACAGAGGAUUGAGCAUCA
B12: 67424326_67425412_2592_3pUTR_ENSMUSG00000037736_ENSMUST00000038188|mouse|control|control (ssRNA)
RNA: GGGAGUUCUACAGUCCGACGAUCAGGUGGAUCCUGAGCUGGCUGUGGGUUUGUACCACAGUGUGGGGCCCCAGCCUCUGCCUCCAGCUGCGGGUCCUGAUGGAUUCCUUUUGACACGGAGAUUUCAGGGUUAGCCGAGGGACUCAACAGAGGAUUGAGCAUCA
B13: chr1:115279457:115279458:-_ENSG00000009307_ENST00000339438|hu_hu|FALSE|FALSE (ssRNA)
RNA: GGGAGUUCUACAGUCCGACGAUCGUUUAUUUUAUCUCCAGUUUCCAGCUGAACGUUCCCUUCGACAUCUUCAGGGGUGUAAGUCAGAUAAAACACUUCUUGUCCAUUCAUUCGUUCUUCAGGGAGGAUUUCUUGUUUUAUCUUCAACAGAGGAUUGAGCAUCA
B14: 184256513_184260114_344_3pUTR_ENSMUSG00000047539_ENSMUST00000051431|mouse|control|control (ssRNA)
RNA: GGGAGUUCUACAGUCCGACGAUCUGACUCUCUCCUCGGUAGCUGUGCUUUAACUUGCUUCUGACACAGGUUAUGGAACCUCUCCACUUUCAGAAACCCCUGAUUCAACAUUCUCUGACAGACCAGGUCCAUUCUCUUACAAACCAACAGAGGAUUGAGCAUCA

Biological target: T1, UNK ZnF1-3
Assay: nsRBNS (natural sequence RNA bind-n-seq); RBNS binding buffer (assumed for nsRBNS): 25 mM Tris pH 7.5, 150 mM KCl, 3 mM MgCl2, 0.01% Triton X-100, 500 ug/ml BSA, 20 U/ml SUPERase-In, 4 C; UNK is unkempt and MSI1 is Musashi-1; names of the RNAs are library labels; protein concentration not given here; high values mean tight binding

Binder	binding signal
B1	1.18 enrichment R
B2	1.08 enrichment R
B3	0.996 enrichment R
B4	0.712 enrichment R
B5	1.08 enrichment R
B6	0.759 enrichment R
B7	1.97 enrichment R
B8	0.645 enrichment R
B9	1.6 enrichment R
B10	0.687 enrichment R
B11	0.765 enrichment R
B12	0.682 enrichment R
B13	0.494 enrichment R
B14	0.836 enrichment R
